Assay results as given in the antibiotic and cytotoxicity screens of Wong et al. (2023).
Some of the results follow.

Columns and labels:
HSkMC = human skeletal muscle cells; assay: cytotoxicity call (relative viability < 0.9); details: 10 µM
HepG2 = assay: cytotoxicity call (relative viability < 0.9); details: 10 µM
S. aureus RN4220 = assay: growth inhibition call (relative growth <= 0.2); details: 50 µM

C[C@H]1CN([C@@H](C)CO)C(=O)c2cc(C#Cc3cccc(F)c3)cnc2O[C@@H]1CN(C)CC1CCOCC1
inactive: cytotoxicity call (HSkMC) | cytotoxicity call (HepG2) | growth inhibition call (S. aureus RN4220)

Cc1noc(C)c1NC(=O)Nc1cccc2c1O[C@@H](CN(C)S(=O)(=O)c1ccccc1)[C@H](C)CN([C@H](C)CO)C2=O
inactive: cytotoxicity call (HSkMC) | cytotoxicity call (HepG2) | growth inhibition call (S. aureus RN4220)

C[C@H](CO)N1C[C@H](C)[C@@H](CN(C)S(=O)(=O)c2cn(C)cn2)Oc2c(NC(=O)NC3CCCCC3)cccc2C1=O
inactive: cytotoxicity call (HSkMC) | cytotoxicity call (HepG2) | growth inhibition call (S. aureus RN4220)

COc1ccc(S(=O)(=O)N(C)C[C@@H]2Oc3ccc(NS(C)(=O)=O)cc3C(=O)N([C@H](C)CO)C[C@@H]2C)cc1
inactive: cytotoxicity call (HSkMC) | cytotoxicity call (HepG2) | growth inhibition call (S. aureus RN4220)

COc1cc2c(cc1-c1coc3c4c(ccc3c1=O)OC(C)(C)CC4)OCO2
inactive: cytotoxicity call (HSkMC) | cytotoxicity call (HepG2) | growth inhibition call (S. aureus RN4220)

C[C@@H]1CN([C@@H](C)CO)C(=O)c2cc(NC(=O)CCC(F)(F)F)ccc2O[C@@H]1CN(C)Cc1ccc(C(F)(F)F)cc1
inactive: cytotoxicity call (HSkMC) | cytotoxicity call (HepG2) | growth inhibition call (S. aureus RN4220)

COc1ccc(CN(C)C[C@@H]2OCCCC[C@@H](C)Oc3ccc(NS(=O)(=O)c4cccs4)cc3C(=O)N([C@H](C)CO)C[C@@H]2C)cc1
inactive: cytotoxicity call (HSkMC) | cytotoxicity call (HepG2) | growth inhibition call (S. aureus RN4220)

Cc1ccc(S[C@]2(C(=O)NCC(F)(F)F)CC(=O)N(Cc3cc(C(F)(F)F)cc(C(F)(F)F)c3)[C@@H]2c2ccc(CO)cc2I)cc1
inactive: cytotoxicity call (HSkMC) | cytotoxicity call (HepG2) | growth inhibition call (S. aureus RN4220)

O=C(O)[C@@H]1C(=CCO)O[C@H]2CC(=O)N12
inactive: cytotoxicity call (HSkMC) | cytotoxicity call (HepG2) | growth inhibition call (S. aureus RN4220)

C[C@@H]1CN([C@H](C)CO)C(=O)c2cc(NC(=O)CCN3CCOCC3)ccc2O[C@H]1CN(C)CC1CCCCC1
inactive: cytotoxicity call (HSkMC) | cytotoxicity call (HepG2) | growth inhibition call (S. aureus RN4220)
